In the supplement of paper PMC3334620:
Whole data set: some 33,000 sequences, median “E-score (-0.5 to 0.5)” near -0.041, cut for the highest 2% near 0.37. The list shows a part of the results.

What follows are sequences tested against T1, Ecm22 (UniProt Q05958) (assay: PBM E-score (8-mer binding enrichment) (E-score (-0.5 to 0.5)); higher = stronger / more preferred TF binding; most listed sequences are background and not binding sites). Details: protein concentration: 200 nM; construct: GST-full length.
T1 sequence: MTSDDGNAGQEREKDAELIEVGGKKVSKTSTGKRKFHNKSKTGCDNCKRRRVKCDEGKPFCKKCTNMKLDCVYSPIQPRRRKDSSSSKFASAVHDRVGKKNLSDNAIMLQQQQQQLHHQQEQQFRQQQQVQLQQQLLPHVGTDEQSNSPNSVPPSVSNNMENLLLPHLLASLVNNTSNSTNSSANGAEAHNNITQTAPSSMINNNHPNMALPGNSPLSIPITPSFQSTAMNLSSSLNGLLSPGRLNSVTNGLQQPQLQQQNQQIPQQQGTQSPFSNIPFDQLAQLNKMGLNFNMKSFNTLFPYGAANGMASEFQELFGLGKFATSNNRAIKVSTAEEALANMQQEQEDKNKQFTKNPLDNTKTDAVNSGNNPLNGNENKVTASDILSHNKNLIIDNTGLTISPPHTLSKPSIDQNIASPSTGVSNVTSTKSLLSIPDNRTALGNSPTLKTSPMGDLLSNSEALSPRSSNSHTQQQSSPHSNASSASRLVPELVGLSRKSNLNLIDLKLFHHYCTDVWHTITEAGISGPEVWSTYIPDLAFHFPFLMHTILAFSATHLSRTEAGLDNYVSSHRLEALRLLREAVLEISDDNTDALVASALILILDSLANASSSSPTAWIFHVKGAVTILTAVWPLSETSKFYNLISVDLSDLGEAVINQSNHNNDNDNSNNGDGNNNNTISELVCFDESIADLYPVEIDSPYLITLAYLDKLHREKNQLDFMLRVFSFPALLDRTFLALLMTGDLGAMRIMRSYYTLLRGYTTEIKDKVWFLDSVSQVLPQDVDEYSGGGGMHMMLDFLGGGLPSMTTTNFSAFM
Procedure, shortened: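 Masliner-normalised scans of fluorescent anti-GST signal were the basis for scoring. That signal came from GST-tagged yeast transcription factors applied at about 100-200 nM to double-stranded universal all-10-mer Agilent arrays on fresh or once-stripped slides. Each ungapped eight-base word, pooled with its reverse complement, received an E-score from the Universal PBM Analysis Suite.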

| Sequence | PBM E-score |
| --- | --- |
| CCATACGA | 0.462 |
| ACAATCTG | -0.209 |
| ATCAAGTA | -0.132 |
| TAGTAAAA | -0.00806 |
| AGTATGTA | 0.00181 |
| CGACTGTA | 0.108 |
| ACACCGGC | -0.00457 |
| TATCCTAA | -0.0902 |
| AAGCAGTC | -0.0879 |
| GTCAATGA | -0.164 |
| AAAGACTT | -0.0715 |
| CTGAGATA | -0.0217 |
| ACTGAGCT | -0.275 |
| CAAGGCGC | -0.171 |
| AAAATGCG | 0.198 |
| TAAAGATA | 0.0588 |
| GGGTGCAA | -0.11 |
| GGGAAAGA | -0.051 |
| AGCGGCGC | -0.222 |
| CGACATCA | 0.231 |
| GGGAGCCA | -0.244 |
| AGATAGTA | -0.0423 |
| GAAGGGTC | -0.232 |
| GCCCTTAA | -0.128 |

| Sequence | PBM E-score |
| --- | --- |
| CATCACAA | -0.141 |
| TATCGCCA | -0.0963 |
| CCCGACGG | 0.151 |
| ATAAGTTC | 0.0564 |
| TATCGACA | 0.0654 |
| ACAAGTCT | -0.156 |
| GTGATCCA | -0.181 |
| GAACTACA | 0.042 |
| CACTCGTC | 0.0448 |
| AGACATAT | -0.0669 |
| AAAGCCGG | 0.0157 |
| CTACTCAG | -0.308 |
| CTAAGGGA | 0.0248 |
| TACGTGAA | 0.242 |
| AATGCCTG | -0.0553 |
| AGCGGTCC | 0.105 |
| CATGCCAC | -0.102 |
| AACAAGAG | -0.016 |
| CTTTCACA | 0.00363 |
| AAAATTAA | -0.0928 |
| GCGGCCTA | -0.19 |
| AGGAAAAT | -0.0694 |
| ATTACCAC | -0.037 |
| AATATATC | -0.0729 |

| Sequence | PBM E-score |
| --- | --- |
| GAAGCTTA | 0.135 |
| AACTGACA | -0.0147 |
| GAGACGGC | -0.00839 |
| CGGCACCA | -0.0406 |
| CTATGTAC | 0.179 |
| AACTAATC | 0.0238 |
| GGATCAGA | -0.174 |
| AATACCAA | -0.12 |
| GATTAAGA | 0.106 |
| AAGCCATA | -0.0528 |
| ACGCTCCC | -0.0885 |
| GAACGGTC | 0.298 |
| TCTTTTCA | -0.313 |
| AATAGACA | -0.16 |
| AAATTGCG | 0.249 |
| CTCTATGA | -0.217 |
| AGGAGAAA | -0.281 |
| GACCACTA | -0.136 |
| GTGTACAA | 0.0152 |
| ACCGGAGT | 0.102 |
| GGCTTTAC | 0.161 |
| ACAAGTCC | -0.254 |
| AGGTTTGG | -0.0826 |
| ATCTAGAT | 0.0119 |

| Sequence | PBM E-score |
| --- | --- |
| CAGTGCCA | -0.0561 |
| ATGAACTC | -0.123 |
| ATCAGTCA | 0.00779 |
| CTCTTAGC | -0.0299 |
| GAATAACA | 0.0805 |
| CTTATAAA | 0.0194 |
| CGCAAACA | 0.119 |
| CTCCTGTA | -0.121 |
| CAAATAGC | -0.131 |
| CAGTGGCC | -0.205 |
| CCCCTTGC | -0.239 |
| ACGACCGC | 0.338 |
| ACTAGTTA | -0.0126 |
| ACGGAACG | 0.442 |
| CCTAATAC | -0.0913 |
| ATGGCTGC | -0.0911 |
| GTCTAGTA | 0.0206 |
| TCAGAAGA | -0.137 |
| AATCAGAC | -0.0272 |
| CAGAGCTG | -0.234 |
| AGTCATAA | -0.0737 |
| CTGGGAAA | -0.186 |
